Consider 9 sequences from publication PMC9911399.

This is one part of the list.

The assay has as its target T1, RBFOX1 RRM (Homo sapiens) (UniProt Q9NWB1).
T1 sequence: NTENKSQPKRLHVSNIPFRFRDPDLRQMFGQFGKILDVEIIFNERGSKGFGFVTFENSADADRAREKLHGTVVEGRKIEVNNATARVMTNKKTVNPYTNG
Briefly: EMSA. The following applies: HiTS-Eq, 1 nM pool, 10 min; buffer printed only for the single-RNA assays: 10 mM Tris pH 7.5, 150 mM NaCl, 3.4 mM EDTA, 0.001% NP-40, 30 C. On the technique in general: A gel shift assay detects complexes by their altered migration in electrophoresis.
On to “GGGAGACCGGAAUUCAGAUUGUCCUCCCGGAUUAAAUCCCGUCGUAGCCACCA / CAATCTGAATTCCGGTCTCCC / TGGTGGCTACGACGGGATT”, for which the binding signal (KA relative to UGCAUGU) turned out to be 0.0123.
With “GGGAGACCGGAAUUCAGAUUGUCCGACUCCCUUAAAUCCCGUCGUAGCCACCA / CAATCTGAATTCCGGTCTCCC / TGGTGGCTACGACGGGATT” the figure was 0.00712; with “GGGAGACCGGAAUUCAGAUUGUCCCCCAUCAUUAAAUCCCGUCGUAGCCACCA / CAATCTGAATTCCGGTCTCCC / TGGTGGCTACGACGGGATT”, 0.00334; with “GGGAGACCGGAAUUCAGAUUGUCCGGUGCCCUUAAAUCCCGUCGUAGCCACCA / CAATCTGAATTCCGGTCTCCC / TGGTGGCTACGACGGGATT”, 0.0104.
In turn, “GGGAGACCGGAAUUCAGAUUGUCCGGGCCCCUUAAAUCCCGUCGUAGCCACCA / CAATCTGAATTCCGGTCTCCC / TGGTGGCTACGACGGGATT” showed a binding signal (KA relative to UGCAUGU) of 0.0186.
On to “GGGAGACCGGAAUUCAGAUUGUCCACCGGUCUUAAAUCCCGUCGUAGCCACCA / CAATCTGAATTCCGGTCTCCC / TGGTGGCTACGACGGGATT”, for which the binding signal (KA relative to UGCAUGU) stood at 0.00861.
For “GGGAGACCGGAAUUCAGAUUGUCCCCCUCUCUUAAAUCCCGUCGUAGCCACCA / CAATCTGAATTCCGGTCTCCC / TGGTGGCTACGACGGGATT” the value was 0.0127.
For “GGGAGACCGGAAUUCAGAUUGUCCGGUAUCCUUAAAUCCCGUCGUAGCCACCA / CAATCTGAATTCCGGTCTCCC / TGGTGGCTACGACGGGATT” the value was 0.0127.
In turn, “GGGAGACCGGAAUUCAGAUUGUCCUCUCCCUUUAAAUCCCGUCGUAGCCACCA / CAATCTGAATTCCGGTCTCCC / TGGTGGCTACGACGGGATT” yielded a binding signal (KA relative to UGCAUGU) of 0.00629.
